Molecules are shown by their SMILES.

This test addresses isolated recombinant JAK1 kinase domain (Homo sapiens (Human), UniProt P23458). As to conditions: read-out: JAK1 Ki; isolated recombinant JAK1 kinase domain, 25 μM ATP.
In the case of `O=C(NCCCN1CCOCC1)c1ccc(Nc2nc3c(C4=CCN(C(=O)CCC(F)(F)F)CC4)cccn3n2)cc1` [Example 2-271, N-(3-morpholinopropyl)-4-[[8-[1-(4,4,4-trifluorobutanoyl)-3,6-dihydro-2H-pyridin-4-yl]-[1,2,4]triazolo[1,5-a]pyridin-2-yl]amino]benzamide], the Ki was 0.48 nM. Under `O=C(CCC(F)(F)F)N1CC=C(c2cccn3nc(Nc4ccc(C(=O)N5CCCC5c5ccncc5)cc4)nc23)CC1` (centres unmarked) [Example 2-273, 4,4,4-trifluoro-1-[4-[2-[4-[2-(4-pyridyl)pyrrolidine-1-carbonyl]anilino]-[1,2,4]triazolo[1,5-a]pyridin-8-yl]-3,6-dihydro-2H-pyridin-1-yl]butan-1-one] stands 0.49 nM.

`CN1CCC(CCNC(=O)c2ccc(Nc3nc4c(C5=CCN(C(=O)CCC(F)(F)F)CC5)cccn4n3)cc2)CC1` [Example 2-274, N-[2-(1-methyl-4-piperidyl)ethyl]-4-[[8-[1-(4,4,4-trifluorobutanoyl)-3,6-dihydro-2H-pyridin-4-yl]-[1,2,4]triazolo[1,5-a]pyridin-2-yl]amino]benzamide]: the inhibition constant Ki worked out at 0.62 nM.

On to `CNC(=O)C1CN(C(=O)c2ccc(Nc3nc4c(C5=CCN(C(=O)CCC(F)(F)F)CC5)cccn4n3)cc2)CCN1C` (centres unmarked) [Example 2-275, N,1-dimethyl-4-[4-[[8-[1-(4,4,4-trifluorobutanoyl)-3,6-dihydro-2H-pyridin-4-yl]-[1,2,4]triazolo[1,5-a]pyridin-2-yl]amino]benzoyl] piperazine-2-carboxamide], for which the Ki came to 1.15 nM. In the case of `CNC(=O)C1CN(C)CCN1C(=O)c1ccc(Nc2nc3c(C4=CCN(C(=O)CCC(F)(F)F)CC4)cccn3n2)cc1` (centres unmarked) [Example 2-276, N,4-dimethyl-1-[4-[[8-[1-(4,4,4-trifluorobutanoyl)-3,6-dihydro-2H-pyridin-4-yl]-[1,2,4]triazolo[1,5-a]pyridin-2-yl]amino]benzoyl] piperazine-2-carboxamide], the inhibition constant Ki came to 1.29 nM.

Consider `O=C(CCC(F)(F)F)N1CC=C(c2cccn3nc(Nc4ccc(C(=O)N5CCC(Cc6cccnc6)CC5)cc4)nc23)CC1` [Example 2-277, 4,4,4-trifluoro-1-[4-[2-[4-[4-(3-pyridylmethyl)piperidine-1-carbonyl]anilino]-[1,2,4]triazolo[1,5-a]pyridin-8-yl]-3,6-dihydro-2H-pyridin-1-yl]butan-1-one], for which the Ki came to 0.68 nM. Consider `O=C(CCC(F)(F)F)N1CC=C(c2cccn3nc(Nc4ccc(C(=O)N5CCCN(c6ccncc6)CC5)cc4)nc23)CC1` [Example 2-278, 4,4,4-trifluoro-1-[4-[2-[4-[4-(4-pyridyl)-1,4-diazepane-1-carbonyl]anilino]-[1,2,4]triazolo[1,5-a]pyridin-8-yl]-3,6-dihydro-2H-pyridin-1-yl]butan-1-one], for which the Ki came out at 1.21 nM.

Consider `O=C(CCC(F)(F)F)N1CC=C(c2cccn3nc(Nc4ccc(C(=O)N(CCO)Cc5cccnc5)cc4)nc23)CC1` [Example 2-279, N-(2-hydroxyethyl)-N-(3-pyridylmethyl)-4-[[8-[1-(4,4,4-trifluorobutanoyl)-3,6-dihydro-2H-pyridin-4-yl]-[1,2,4]triazolo[1,5-a]pyridin-2-yl]amino]benzamide], for which the Ki amounted to 0.76 nM. With `O=C(CCC(F)(F)F)N1CC=C(c2cccn3nc(Nc4ccc(C(=O)N5CCCCC5c5cccnc5)cc4)nc23)CC1` (centres unmarked) [Example 2-280, 4,4,4-trifluoro-1-[4-[2-[4-[2-(3-pyridyl)piperidine-1-carbonyl]anilino]-[1,2,4]triazolo[1,5-a]pyridin-8-yl]-3,6-dihydro-2H-pyridin-1-yl]butan-1-one], the Ki worked out at 0.67 nM. In the case of `CN1CCC(N(C)C(=O)c2ccc(Nc3nc4c(C5=CCN(C(=O)C6CCCC6)CC5)cccn4n3)cc2)CC1` [Example 2-281, 4-[[8-[1-(cyclopentanecarbonyl)-3,6-dihydro-2H-pyridin-4-yl]-[1,2,4]triazolo[1,5-a]pyridin-2-yl]amino]-N-methyl-N-(1-methyl-4-piperidyl)benzamide], the Ki is 2.53 nM. With `CN1CCC(N(C)C(=O)c2ccc(Nc3nc4c(C5=CCN(C(=O)C6CCC6)CC5)cccn4n3)cc2)CC1` [Example 2-282, 4-[[8-[1-(cyclobutanecarbonyl)-3,6-dihydro-2H-pyridin-4-yl]-[1,2,4]triazolo[1,5-a]pyridin-2-yl]amino]-N-methyl-N-(1-methyl-4-piperidyl)benzamide], the inhibition constant (Ki) was found to be 2.61 nM.

With `CN1CCC(N(C)C(=O)c2ccc(Nc3nc4c(C5=CCN(C(=O)OC6COC6)CC5)cccn4n3)cc2)CC1` [Example 2-283, oxetan-3-yl-4-[2-[4-[methyl-(1-methyl-4-piperidyl)carbamoyl]anilino]-[1,2,4]triazolo[1,5-a]pyridin-8-yl]-3,6-dihydro-2H-pyridine-1-carboxylate], the Ki was found to be 4.65 nM. As for `CN1CCC(N(C)C(=O)c2ccc(Nc3nc4c(C5=CCN(c6ccccc6)CC5)cccn4n3)cc2)CC1` [Example 2-284, N-methyl-N-(1-methyl-4-piperidyl)-4-[[8-(1-phenyl-3,6-dihydro-2H-pyridin-4-yl)-[1,2,4]triazolo[1,5-a]pyridin-2-yl]amino]benzamide], the Ki was found to be 12.3 nM. Take `CN1CCC(N(C)C(=O)c2ccc(Nc3nc4c(C5=CCN(C(=O)C6CCC(C#N)CC6)CC5)cccn4n3)cc2)CC1` (centres unmarked) [Example 2-285, 4-[[8-[1-(4-cyanocyclohexanecarbonyl)-3,6-dihydro-2H-pyridin-4-yl]-[1,2,4]triazolo[1,5-a]pyridin-2-yl]amino]-N-methyl-N-(1-methyl-4-piperidyl)benzamide]: the Ki was found to be 6.43 nM. In the case of `CN1CCC(N(C)C(=O)c2ccc(Nc3nc4c(C5=CCN(C(=O)N6CC7(COC7)C6)CC5)cccn4n3)cc2)CC1` [Example 2-286, N-methyl-N-(1-methyl-4-piperidyl)-4-[[8-[1-(2-oxa-6-azaspiro[3.3]heptane-6-carbonyl)-3,6-dihydro-2H-pyridin-4-yl]-[1,2,4]triazolo[1,5-a]pyridin-2-yl]amino]benzamide], the Ki came out at 8.99 nM. As to `CN1CCC(N(C)C(=O)c2ccc(Nc3nc4c(C5=CCN(C(=O)CCC#N)CC5)cccn4n3)cc2)CC1` [Example 2-287, 4-[[8-[1-(3-cyanopropanoyl)-3,6-dihydro-2H-pyridin-4-yl]-[1,2,4]triazolo[1,5-a]pyridin-2-yl]amino]-N-methyl-N-(1-methyl-4-piperidyl)benzamide], the Ki was 1.1 nM. In the case of `CN1CCC(N(C)C(=O)c2ccc(Nc3nc4c(C5=CCN(C(=O)CCC(F)(F)F)CC5)cccn4n3)cc2)CC1` [Example 2-288, N-methyl-N-(1-methyl-4-piperidyl)-4-[[8-[1-(4,4,4-trifluorobutanoyl)-3,6-dihydro-2H-pyridin-4-yl]-[1,2,4]triazolo[1,5-a]pyridin-2-yl]amino]benzamide], the Ki came out at 1.32 nM. In the case of `CCCC(=O)N1CC=C(c2cccn3nc(Nc4ccc(C(=O)N(C)C5CCN(C)CC5)cc4)nc23)CC1` [Example 2-289, 4-[[8-(1-butanoyl-3,6-dihydro-2H-pyridin-4-yl)-[1,2,4]triazolo[1,5-a]pyridin-2-yl]amino]-N-methyl-N-(1-methyl-4-piperidyl)benzamide] it was 5.78 nM; in that of `CCOC(=O)N1CC=C(c2cccn3nc(Nc4ccc(C(=O)NCCCN5CCN(C)CC5)cc4)nc23)CC1` [Example 2-291, ethyl 4-[2-[4-[3-(4-methylpiperazin-1-yl)propylcarbamoyl]anilino]-[1,2,4]triazolo[1,5-a]pyridin-8-yl]-3,6-dihydro-2H-pyridine-1-carboxylate], 1.9 nM. As for `CCOC(=O)N1CC=C(c2cccn3nc(Nc4ccc(C(=O)N(C)C5CCN(C)C5)cc4)nc23)CC1` (centres unmarked) [Example 2-292, ethyl 4-[2-[4-[methyl-(1-methylpyrrolidin-3-yl)carbamoyl]anilino]-[1,2,4]triazolo[1,5-a]pyridin-8-yl]-3,6-dihydro-2H-pyridine-1-carboxylate], the inhibitory constant (Ki) amounted to 5.27 nM.

In the case of `CCOC(=O)N1CC=C(c2cccn3nc(Nc4ccc(C(=O)NCCN5CCCCC5)cc4)nc23)CC1` [Example 2-294, ethyl 4-[2-[4-[2-(1-piperidyl)ethylcarbamoyl]anilino]-[1,2,4]triazolo[1,5-a]pyridin-8-yl]-3,6-dihydro-2H-pyridine-1-carboxylate], the Ki worked out at 3.15 nM. As to `CCOC(=O)N1CC=C(c2cccn3nc(Nc4ccc(C(=O)N5CCCC(N6CCOCC6)C5)cc4)nc23)CC1` (centres unmarked) [Example 2-295, ethyl 4-[2-[4-(3-morpholinopiperidine-1-carbonyl)anilino]-[1,2,4]triazolo[1,5-a]pyridin-8-yl]-3,6-dihydro-2H-pyridine-1-carboxylate], the Ki was 3.27 nM.

Turning to `CCOC(=O)N1CC=C(c2cccn3nc(Nc4ccc(C(=O)NCC5CCNC5)cc4)nc23)CC1` (centres unmarked) [Example 2-296, ethyl 4-[2-[4-(pyrrolidin-3-ylmethylcarbamoyl)anilino]-[1,2,4]triazolo[1,5-a]pyridin-8-yl]-3,6-dihydro-2H-pyridine-1-carboxylate], the inhibition constant (Ki) worked out at 1.73 nM. In the case of `CCOC(=O)N1CC=C(c2cccn3nc(Nc4ccc(C(=O)N5CCN(Cc6cccnc6)CC5)cc4)nc23)CC1` [Example 2-297, ethyl 4-[2-[4-[4-(3-pyridylmethyl)piperazine-1-carbonyl]anilino]-[1,2,4]triazolo[1,5-a]pyridin-8-yl]-3,6-dihydro-2H-pyridine-1-carboxylate] it was 2.05 nM; in that of `CCOC(=O)N1CC=C(c2cccn3nc(Nc4ccc(C(=O)N5CCC(N6CCN(C)CC6)CC5)cc4)nc23)CC1` [Example 2-298, ethyl 4-[2-[4-[4-(4-methylpiperazin-1-yl)piperidine-1-carbonyl]anilino]-[1,2,4]triazolo[1,5-a]pyridin-8-yl]-3,6-dihydro-2H-pyridine-1-carboxylate], 3.08 nM. In the case of `CCOC(=O)N1CC=C(c2cccn3nc(Nc4ccc(C(=O)N5CCN(CCn6ccnc6)CC5)cc4)nc23)CC1` [Example 2-299, ethyl 4-[2-[4-[4-(2-imidazol-1-ylethyl)piperazine-1-carbonyl]anilino]-[1,2,4]triazolo[1,5-a]pyridin-8-yl]-3,6-dihydro-2H-pyridine-1-carboxylate], the inhibition constant Ki came to 3.05 nM.

A word on the Ki: it is a dissociation constant, usually derived from enzyme kinetics or from competition with a known ligand.

The record behind these values is patent US9873709B2 (priority 2013, dated 2018).
